# Values joined by “and” are separate entries in the source; they are usually repeats but may differ in a detail not shown here. Equal values may be shown once. The whole screen tested about 420,000 compounds, of which about 64,000 (15%) were called active. The shares of active, inactive and inconclusive entries below differ from those in the screen. Calls follow the shape of the dose curve; as a rule, active = well fitted inhibition curve with a large enough effect; inconclusive = small, poorly fitted or top-dose-only effect; inactive = flat fitted curve, though single readings scatter. Potencies beside an inconclusive call are fits to weak or partial responses and may not hold up.
# Test: qHTS for Inhibitors of human tyrosyl-DNA phosphodiesterase 1 (TDP1): qHTS in cells in absence of CPT; also: nearly all actives have a fitted effect of over 55% in size
# Settings: DT40 Tdp1-/- hTDP1 cells, no CPT, ATP luminescence, 48 h; activity change, negative = growth inhibition: at 46.2 µM (top of the series) unless noted
# In short: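 Readout: luminescence from CellTiter-Glo after 30 min in the dark at RT. Cells: DT40 Tdp1-/- with stable hTDP1, 400/well. Exposure: compounds alone, ≥48 hr, 37 °C.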
# % is scaled to controls: 0 for no effect and ±100 for the full control effect; potency is read from the fitted curve at half-maximal effect; tags tell the direction and shape of the fitted curve.
Structure (SMILES),Potency,"activity change, negative = growth inhibition"
CCC(=O)Nc1ccc(/C(C)=N/NC(=O)c2c(Br)c(C)nn2C)cc1,active: 14.6 µM,
CCN1C[C@@H]2[C@@H]3C(=O)N(C)C(=O)[C@@H]3[C@](Cc3ccccc3)(C1=O)N2C(=O)c1ccc(C(C)(C)C)cc1,,inactive: -28.3%
Cc1ccccc1OCCn1c(CCNC(=O)C(C)(C)C)nc2ccccc21,"inconclusive: 29.1 µM [inhibitor, single point]",
CC(=O)Nc1ccc(C(=O)OCC(=O)NCc2ccccc2)cc1,active: 20.6 µM,
Cc1cc(-c2csc(NC(=O)c3ccc(C#N)cc3)n2)c(C)n1Cc1ccco1,,inactive: -29.1%
CCc1cc2c(=O)n(Cc3ccccc3)c(SC3CCOC3=O)nc2s1 (stereo not drawn),"inconclusive: 32.6 µM [inhibitor, single point]",
O=C(/C=C/c1ccc(Cl)cc1)Nc1cc(S(=O)(=O)N2CCOCC2)ccc1N1CCOCC1,"inconclusive: 29.1 µM [inhibitor, single point]",
CC(C)(C)OC(=O)N1CCC(c2c(C(=O)N3CCc4ccccc4C3)cnn2-c2ccc(F)cc2)CC1,"inconclusive: 18.4 µM [inhibitor, single point]",
O=C(O)c1[nH]c(-c2ccccc2)c2c1C(=O)N(C1CC1)C2=O,"inconclusive: 29.1 µM [inhibitor, single point]",
COc1ccc(C(C)C)cc1S(=O)(=O)NCCc1c(C)[nH]c2ccc(C)cc12,"inconclusive: 29.1 µM [inhibitor, single point]",
COc1ccc(/C=C/C(=O)N(C(C)C)C(C)C)cc1Br,active: 12.6 µM,
Cc1c(C(=O)Nc2cnccn2)oc2ccccc12,"inconclusive: 29.1 µM [inhibitor, single point]",
O=C(N/N=C/c1ccc2c(c1)OCO2)c1sc2cccc(Cl)c2c1Cl,"inconclusive: 18.4 µM [inhibitor, single point]",
COc1ccc(-c2noc(CCC(=O)N3CCN(c4ccccc4F)CC3)n2)cc1,,inactive: -15.7%
CCc1ccc(CNC(=O)c2ccc(-c3nc(CS(=O)(=O)c4ccccc4)c(C)o3)cc2)cc1,"inconclusive: 16.4 µM [inhibitor, single point]",
COC(=O)c1ccc2nc(C(C)(C)C)c(Cc3ccc(OC)cc3C)n2c1,"inconclusive: 18.4 µM [inhibitor, single point]",
Cc1ccc(C)c(NC(=O)CN(C)C(=O)CN2C(=O)C3CCCCC3C2=O)c1 (stereo not drawn),,inactive: -3.23%
Cc1ccccc1Cn1ccc(NC(=O)c2cnn3c2NC(c2ccccc2)CC3C(F)(F)F)n1 (stereo not drawn),"inconclusive: 23.1 µM [inhibitor, single point]",
Cn1c(CCC(=O)Nc2ccc(S(C)(=O)=O)cc2)nc2cc(S(=O)(=O)N3CCOCC3)ccc21,,inactive: 0.578%
CCN1CCN(CCCOc2ccc(Cl)cc2Br)CC1,active: 16.4 µM,
CCN(C[C@H]1N[C@@](C)(C(=O)OC)[C@H]2C(=O)N(C)C(=O)[C@@H]12)C(=O)C1CCCCC1,,inactive: -5.11%
CC(=O)CSc1nc(N)c(C#N)c(-c2cccs2)c1C#N,active: 13 µM,
O=C1N[C@@H](c2ccccc2)COC(=O)[C@@H](Cc2ccc(F)cc2)CC/C=C/C[C@@H]1CC(=O)N(CCO)Cc1ccccc1,active: 18.4 µM,
CCOc1ccc(-c2nc(C#N)c(NCCCOC)o2)cc1,active: 6.51 µM,
Cc1nc2nc(SCC(=O)NCc3ccco3)nn2c(C)c1Cc1ccccc1,,inactive: -22.9%

Structure (SMILES),Potency,"activity change, negative = growth inhibition"
CCc1ccc(CNC(=O)CSc2cc(=O)n(C)c3ccc(Cl)cc23)cc1,active: 23.1 µM,
O=C(C[N+]12CN3CN(CN(C3)C1)C2)c1ccc(I)cc1,"inconclusive: 22.4 µM [inhibitor, single point]",
COCCCNC(=O)c1c(NC(=O)Cc2coc3cc(C)cc(C)c23)sc2c1CCCC2,"inconclusive: 25.9 µM [inhibitor, single point]",
Cc1ccc(C)c(NC(=S)N2CCC(NC(=O)C3CCCCC3)CC2)c1,,inactive: -9.3%
COc1ccc(OC)c(CNC(=O)Cc2ccc(NC(=O)N3CCCCc4ccccc43)cc2)c1,active: 9.2 µM,
N#C/C(=C\c1ccco1)C(=O)Nc1cccc2ncccc12,,inactive: 1.14%
CCn1c(CSc2nc3ccccc3s2)nnc1SCC(=O)OC(C)(C)C,"inconclusive: 25.1 µM [inhibitor, single point]",
Cc1ccnn1CCC(=O)N1CCCC(Nc2ccc(F)c(F)c2)C1 (stereo not drawn),,inconclusive: -31.8% [inhibitor]
c1ccc2c3c([nH]c2c1)-c1[nH]ncc1CC3,"inconclusive: 29.1 µM [inhibitor, single point]",
CCn1c2ccccc2c2cc(NC(=O)c3ccc(C)c([N+](=O)[O-])c3)ccc21,active: 3.26 µM,
CCN(CCCNC(=O)c1cc2c(=O)n(CC)c3ccccc3c2s1)c1ccccc1,active: 18.4 µM,
O=C(NC(Cc1ccccc1)C(=O)O)/C(=C/c1ccc(Cl)cc1)NC(=O)c1ccco1 (stereo not drawn),,inactive: -0.0675%
CC(C)Cc1csc(NC(=O)c2ccc(F)cc2)c1C(=O)O,"inconclusive: 29.1 µM [inhibitor, single point]",
COc1cc2c(cc1OC)CN(CC(=O)Nc1ccc(F)cc1)CC2,,inactive: -8.18%
COc1ccc(-c2cc(-c3ccccc3)nc(SCC(=O)CC(=O)OC(C)C)c2C#N)cc1,"inconclusive: 20.6 µM [inhibitor, single point]",
O=C(c1ccc2c(c1)N(Cc1ccccc1F)C(=O)c1ccccc1S2(=O)=O)N1CCCC1,active: 23.1 µM,
COc1ccc(NC(=O)CN(C)C(=O)c2cc(-c3cccs3)nn2-c2ccccc2)cc1,active: 14.6 µM,
CC1(C)SC(=S)N(NC(=O)Nc2cccc3ccccc23)C1N(O)C(=O)Nc1ccccc1 (stereo not drawn),active: 16.4 µM,
Cc1cc2c(cc1S(=O)(=O)Nc1ccc(F)cc1)n(C)c(=O)c(=O)n2C,,inactive: -3.83%
C=CCCC(=O)N1C[C@H]2CON(C)[C@H]2C[C@H]1c1ccc(-n2ccnc2)cc1,,inactive: 1.34%
COc1ccc2[nH]c(C(=O)N/N=C/c3ccc(O)cc3O)cc2c1,active: 3.66 µM,
O=C(Nc1ccncc1)c1cncc(Br)c1,,inactive: -23.8%
CN(c1ccc(C(=O)NCc2ccncc2)cc1)S(C)(=O)=O,"inconclusive: 6.51 µM [inhibitor, single point]",
C/C(=N\NC(=O)c1cccc(S(=O)(=O)Nc2cccc(Cl)c2)c1)c1cccs1,"inconclusive: 23.1 µM [inhibitor, single point]",
Cc1ccc(S(=O)(=O)N2CCOCC2)cc1NC(=O)Nc1ccc([N+](=O)[O-])cc1,"inconclusive: 23.1 µM [inhibitor, single point]",

Structure (SMILES),Potency,"activity change, negative = growth inhibition"
O=C(c1ccccc1F)N1CCCC(N2CCN(Cc3ccc4c(c3)OCO4)CC2)C1 (stereo not drawn),"inconclusive: 29.1 µM [inhibitor, single point]",
CC1CCCC(C)N1C(=O)CSc1nnc(C2CCCCC2)o1 (stereo not drawn),"inconclusive: 18.4 µM [inhibitor, partial curve]",
CS(=O)(=O)c1ccc(Oc2ccc(-c3nnco3)cc2)c([N+](=O)[O-])c1,,inactive: -14.5%
Oc1c(CN2CCOCC2)cc(CN2CCOCC2)c(O)c1O,"inconclusive: 20.6 µM [inhibitor, single point]",
Cc1ccc(-c2onc3ccc(C4(C)OCCO4)cc23)cc1,"inconclusive: 8.2 µM [inhibitor, partial curve]",
CCCCCNC(=O)C(C1CC1)n1c(=O)c(-c2ccco2)nc2ccccc21 (stereo not drawn),active: 13 µM,
O=C(CSc1ccc(Cl)cc1)NNC(=O)c1ccncc1,,inactive: 4.8%
CC(NC(=O)CCSCc1ccccc1F)c1ccccc1 (stereo not drawn),"inactive and inconclusive: 20.6 µM [inhibitor, single point]",
COc1ccccc1CN1CCNC(=O)C1CC(=O)N(C)CC1CCOCC1 (stereo not drawn),,inactive: 17.6%
CC1=Nc2cc(C(=O)O)ccc2Sc2ccc(Br)cc21,,inactive: -18.1%
Clc1ccccc1C1CC(c2ccccc2)Nc2ncnn21 (stereo not drawn),"inconclusive: 16.4 µM [inhibitor, partial curve]",
COc1cc2ncnc(NCc3ccc4c(c3)OCO4)c2cc1OC,"inconclusive: 29.1 µM [inhibitor, single point]",
Cc1cc(F)ccc1NCc1ccccc1-c1nnc(-c2ccccc2Cl)o1,active: 20.6 µM,
CCOC(=O)CC1Sc2ccccc2NC1=S (stereo not drawn),,inactive: 5.67%
CCOC(=O)C1=C(CC)OC(N)=C(C#N)C1c1ccc(OC)cc1OC (stereo not drawn),"inconclusive: 20.6 µM [inhibitor, single point]",
COc1ccc(CCN2C(=O)CSC2=Nc2ccc(C)cc2C)cc1OC,active: 23.1 µM,
Clc1ccccc1-c1cc(NCCN2CCOCC2)ncn1,"inconclusive: 0.13 µM [inhibitor, full curve, poor fit]",
C=CCN(CC=C)CCOc1cccc(Oc2ccccc2)c1,"inconclusive: 16.4 µM [inhibitor, single point]",
COc1cc2c(-c3ccccc3)c(C)oc2cc1/C=N/NC(N)=S,"inconclusive: 3.66 µM [inhibitor, partial curve]",
O=S(=O)(c1ccc2ccccc2c1)N(CC1CO1)c1ccccc1 (stereo not drawn),"inconclusive: 10.3 µM [inhibitor, partial curve]",
COC(=O)C1(C)NC(c2ccc(OC)cc2)C2C(=O)N(c3ccccc3)C(=O)C21 (stereo not drawn),"inconclusive: 3.66 µM [inhibitor, single point]",
O=C(NCc1ccco1)c1cnn2c(C(F)(F)F)cc(-c3ccccc3)nc12,"inconclusive: 20.6 µM [inhibitor, partial curve]",
Brc1ccc(CSc2nnc(Cc3c[nH]c4ccccc34)o2)cc1,"inconclusive: 11.6 µM [inhibitor, partial curve]",
